Growth of 20 clonally related Candida (Clavispora) lusitaniae isolates in two-fold drug steps (micafungin 0.016-8, fluconazole 0.5-256 µg/mL; YPAD, 30 °C, 24 h), OD600 as a fraction of the no-drug well; lower = more inhibition. The paper reads the MIC at the lowest dose that inhibits growth by half or more; no call per well. Isolates are numbered anew; coding changes are against their shared background.
Key:
Assay in all cases: growth relative to the no-drug well (fraction of no-drug control); higher = more growth, less inhibition; Broth microdilution in YPAD with 1% dextrose at 30 °C; OD600 at 24 h as a fraction of the no-drug well, three assays.
[1] = system: Candida lusitaniae isolate 8 (coding changes: FKS1 L1355S)
[2] = system: Candida lusitaniae isolate 10 (coding changes: none)
[3] = system: Candida lusitaniae isolate 11 (coding changes: FKS1 L685F / RLM1 N181K / SIP3 D333E / RPL8B A161V)
[4] = system: Candida lusitaniae isolate 19 (coding changes: none)
[5] = system: Candida lusitaniae isolate 20 (coding changes: FKS1 L1355S)
[6] = system: Candida lusitaniae isolate 13 (coding changes: RLM1 N181K)
[7] = system: Candida lusitaniae isolate 1 (coding changes: none)
[8] = system: Candida lusitaniae isolate 16 (coding changes: EPL1 D340Y)
[9] = system: Candida lusitaniae isolate 15 (coding changes: none)
[10] = system: Candida lusitaniae isolate 7 (coding changes: RLM1 N181K)

SMILES: CCCCCOc1ccc(-c2cc(-c3ccc(C(=O)N[C@H]4C[C@@H](O)[C@@H](O)NC(=O)[C@@H]5[C@@H](O)[C@@H](C)CN5C(=O)[C@H]([C@H](O)CC(N)=O)NC(=O)[C@H]([C@H](O)[C@@H](O)c5ccc(O)c(OS(=O)(=O)O)c5)NC(=O)[C@@H]5C[C@@H](O)CN5C(=O)[C@H]([C@@H](C)O)NC4=O)cc3)no2)cc1 [micafungin]
- growth ([1]; 0.016 µg/mL): 0.892
- growth ([1]; 0.031 µg/mL): 0.544
- growth ([1]; 0.063 µg/mL): 0.239
- growth ([1]; 0.125 µg/mL): 0.075
- growth ([1]; 0.25 µg/mL): 0.0164
- growth ([1]; 0.5 µg/mL): 0.0173
- growth ([1]; 1 µg/mL): 0.00948
- growth ([1]; 2 µg/mL): 0.00603
- growth ([1]; 4 µg/mL): 0.0162
- growth ([1]; 8 µg/mL): 0.00586
- growth ([2]; 0.016 µg/mL): 0.00637
- growth ([2]; 0.031 µg/mL): 0.00427
- growth ([2]; 0.063 µg/mL): 0.00221
- growth ([2]; 0.125 µg/mL): 0.00081
- growth ([2]; 0.25 µg/mL): 0.00416
- growth ([2]; 0.5 µg/mL): 0.00489
- growth ([2]; 1 µg/mL): 0.00421
- growth ([2]; 2 µg/mL): 0.00356
- growth ([2]; 4 µg/mL): 0.00287
- growth ([2]; 8 µg/mL): 0.00287
- growth ([3]; 0.016 µg/mL): 1.02
- growth ([3]; 0.031 µg/mL): 0.867
- growth ([3]; 0.063 µg/mL): 1.08
- growth ([3]; 0.125 µg/mL): 1.01
- growth ([3]; 0.25 µg/mL): 0.781
- growth ([3]; 0.5 µg/mL): 0.934
- growth ([3]; 1 µg/mL): 0.17
- growth ([3]; 2 µg/mL): 0.0899
- growth ([3]; 4 µg/mL): 0.0621
- growth ([3]; 8 µg/mL): 0.0468
- growth ([4]; 0.016 µg/mL): 0.00638
- growth ([4]; 0.031 µg/mL): 0.00457
- growth ([4]; 0.063 µg/mL): 0.00182
- growth ([4]; 0.125 µg/mL): 0.00255
- growth ([4]; 0.25 µg/mL): 0.00156
- growth ([4]; 0.5 µg/mL): 0.00353
- growth ([4]; 1 µg/mL): -0.000833
- growth ([4]; 2 µg/mL): 0.00075
- growth ([4]; 4 µg/mL): 0.000759
- growth ([4]; 8 µg/mL): 0.000759
- growth ([5]; 0.016 µg/mL): 0.592
- growth ([5]; 0.031 µg/mL): 0.195
- growth ([5]; 0.063 µg/mL): 0.0565
- growth ([5]; 0.125 µg/mL): 0.0124
- growth ([5]; 0.25 µg/mL): 0.000226
- growth ([5]; 0.5 µg/mL): 0.00659
- growth ([5]; 1 µg/mL): -9.05e-05
- growth ([5]; 2 µg/mL): 0.00276
- growth ([5]; 4 µg/mL): 0.00314
- growth ([5]; 8 µg/mL): 0.00314
- growth ([6]; 0.016 µg/mL): 0.00282
- growth ([6]; 0.031 µg/mL): 0.0028
- growth ([6]; 0.063 µg/mL): 0.00173
- growth ([6]; 0.125 µg/mL): 0.000399
- growth ([6]; 0.25 µg/mL): 0.00227
- growth ([6]; 0.5 µg/mL): 0.000126
- growth ([6]; 1 µg/mL): 0.00199
- growth ([6]; 2 µg/mL): 0.00254
- growth ([6]; 4 µg/mL): 0.00226
- growth ([6]; 8 µg/mL): 0.00226
- growth ([7]; 0.016 µg/mL): 0.00435
- growth ([7]; 0.031 µg/mL): 0.00224
- growth ([7]; 0.063 µg/mL): 0.00145
- growth ([7]; 0.125 µg/mL): 0.00092
- growth ([7]; 0.25 µg/mL): 0.00277
- growth ([7]; 0.5 µg/mL): 0.00251
- growth ([7]; 1 µg/mL): 0.00328
- growth ([7]; 2 µg/mL): 0.00356
- growth ([7]; 4 µg/mL): 0.000932
- growth ([7]; 8 µg/mL): 0.000932
- growth ([8]; 0.016 µg/mL): 0.00257
- growth ([8]; 0.031 µg/mL): 0.0026
- growth ([8]; 0.063 µg/mL): 0.00207
- growth ([8]; 0.125 µg/mL): 0.0044
- growth ([8]; 0.25 µg/mL): 0.00182
- growth ([8]; 0.5 µg/mL): 0.00617
- growth ([8]; 1 µg/mL): 0.000747
- growth ([8]; 2 µg/mL): 0.00233
- growth ([8]; 4 µg/mL): 0.00155
- growth ([8]; 8 µg/mL): 0.00155
- growth ([9]; 0.016 µg/mL): 0.00332
- growth ([9]; 0.031 µg/mL): 0.00503
- growth ([9]; 0.063 µg/mL): 0.00506
- growth ([9]; 0.125 µg/mL): 0.00478
- growth ([9]; 0.25 µg/mL): 0.0027
- growth ([9]; 0.5 µg/mL): 0.00659
- growth ([9]; 1 µg/mL): 0.001
- growth ([9]; 2 µg/mL): 0.00152
- growth ([9]; 4 µg/mL): 0.00177
- growth ([9]; 8 µg/mL): 0.00177
- growth ([10]; 0.016 µg/mL): 0.00479
- growth ([10]; 0.031 µg/mL): 0.00322
- growth ([10]; 0.063 µg/mL): 0.00219
- growth ([10]; 0.125 µg/mL): 0.00141
- growth ([10]; 0.25 µg/mL): 0.00194
- growth ([10]; 0.5 µg/mL): 0.000909
- growth ([10]; 1 µg/mL): 0.00193
- growth ([10]; 2 µg/mL): 0.000357
- growth ([10]; 4 µg/mL): 0.00141
- growth ([10]; 8 µg/mL): 0.00141

SMILES: OC(Cn1cncn1)(Cn1cncn1)c1ccc(F)cc1F [fluconazole]
- growth ([1]; 0.5 µg/mL): 0.0528
- growth ([1]; 1 µg/mL): 0.0378
- growth ([1]; 2 µg/mL): 0.0368
- growth ([1]; 4 µg/mL): 0.0284
- growth ([1]; 8 µg/mL): 0.0326
- growth ([1]; 16 µg/mL): 0.0321
- growth ([1]; 32 µg/mL): 0.0297
- growth ([1]; 64 µg/mL): 0.02
- growth ([1]; 128 µg/mL): 0.0222
- growth ([1]; 256 µg/mL): 0.0101
- growth ([2]; 0.5 µg/mL): 0.049
- growth ([2]; 1 µg/mL): 0.043
- growth ([2]; 2 µg/mL): 0.0457
- growth ([2]; 4 µg/mL): 0.0406
- growth ([2]; 8 µg/mL): 0.0296
- growth ([2]; 16 µg/mL): 0.0235
- growth ([2]; 32 µg/mL): 0.0355
- growth ([2]; 64 µg/mL): 0.0314
- growth ([2]; 128 µg/mL): 0.0222
- growth ([2]; 256 µg/mL): 0.00872
- growth ([3]; 0.5 µg/mL): 0.0511
- growth ([3]; 1 µg/mL): 0.0331
- growth ([3]; 2 µg/mL): 0.0336
- growth ([3]; 4 µg/mL): 0.0301
- growth ([3]; 8 µg/mL): 0.0277
- growth ([3]; 16 µg/mL): 0.0252
- growth ([3]; 32 µg/mL): 0.0272
- growth ([3]; 64 µg/mL): 0.0215
- growth ([3]; 128 µg/mL): 0.0212
- growth ([3]; 256 µg/mL): 0.00904
- growth ([4]; 0.5 µg/mL): 0.0547
- growth ([4]; 1 µg/mL): 0.0434
- growth ([4]; 2 µg/mL): 0.0439
- growth ([4]; 4 µg/mL): 0.0397
- growth ([4]; 8 µg/mL): 0.0407
- growth ([4]; 16 µg/mL): 0.0405
- growth ([4]; 32 µg/mL): 0.0296
- growth ([4]; 64 µg/mL): 0.0406
- growth ([4]; 128 µg/mL): 0.0283
- growth ([4]; 256 µg/mL): 0.00787
- growth ([5]; 0.5 µg/mL): 0.0591
- growth ([5]; 1 µg/mL): 0.0488
- growth ([5]; 2 µg/mL): 0.0392
- growth ([5]; 4 µg/mL): 0.0309
- growth ([5]; 8 µg/mL): 0.0314
- growth ([5]; 16 µg/mL): 0.0288
- growth ([5]; 32 µg/mL): 0.0304
- growth ([5]; 64 µg/mL): 0.0259
- growth ([5]; 128 µg/mL): 0.0231
- growth ([5]; 256 µg/mL): 0.0109
- growth ([6]; 0.5 µg/mL): 0.0644
- growth ([6]; 1 µg/mL): 0.0401
- growth ([6]; 2 µg/mL): 0.0392
- growth ([6]; 4 µg/mL): 0.041
- growth ([6]; 8 µg/mL): 0.0341
- growth ([6]; 16 µg/mL): 0.0291
- growth ([6]; 32 µg/mL): 0.023
- growth ([6]; 64 µg/mL): 0.036
- growth ([6]; 128 µg/mL): 0.0214
- growth ([6]; 256 µg/mL): 0.0117
- growth ([7]; 0.5 µg/mL): 0.0632
- growth ([7]; 1 µg/mL): 0.0516
- growth ([7]; 2 µg/mL): 0.054
- growth ([7]; 4 µg/mL): 0.0482
- growth ([7]; 8 µg/mL): 0.0496
- growth ([7]; 16 µg/mL): 0.0492
- growth ([7]; 32 µg/mL): 0.0359
- growth ([7]; 64 µg/mL): 0.0407
- growth ([7]; 128 µg/mL): 0.0265
- growth ([7]; 256 µg/mL): 0.0126
- growth ([8]; 0.5 µg/mL): 0.0673
- growth ([8]; 1 µg/mL): 0.0464
- growth ([8]; 2 µg/mL): 0.0493
- growth ([8]; 4 µg/mL): 0.0501
- growth ([8]; 8 µg/mL): 0.0399
- growth ([8]; 16 µg/mL): 0.0454
- growth ([8]; 32 µg/mL): 0.0322
- growth ([8]; 64 µg/mL): 0.0425
- growth ([8]; 128 µg/mL): 0.0303
- growth ([8]; 256 µg/mL): 0.0135
- growth ([9]; 0.5 µg/mL): 0.0642
- growth ([9]; 1 µg/mL): 0.0494
- growth ([9]; 2 µg/mL): 0.0417
- growth ([9]; 4 µg/mL): 0.0385
- growth ([9]; 8 µg/mL): 0.0359
- growth ([9]; 16 µg/mL): 0.0369
- growth ([9]; 32 µg/mL): 0.0338
- growth ([9]; 64 µg/mL): 0.0317
- growth ([9]; 128 µg/mL): 0.0203
- growth ([9]; 256 µg/mL): 0.0113
- growth ([10]; 0.5 µg/mL): 0.378
- growth ([10]; 1 µg/mL): 0.0546
- growth ([10]; 2 µg/mL): 0.0487
- growth ([10]; 4 µg/mL): 0.0435
- growth ([10]; 8 µg/mL): 0.0444
- growth ([10]; 16 µg/mL): 0.0432
- growth ([10]; 32 µg/mL): 0.0426
- growth ([10]; 64 µg/mL): 0.0408
- growth ([10]; 128 µg/mL): 0.0328
- growth ([10]; 256 µg/mL): 0.0134

Source: the supplement of paper PMC10433866
